# Test results as given in the RNAGym collection of RNA variant scans (doi:10.7554/elife.90254).
# The source gives no read counts; variants with many changes may rest on few reads.
# B1: LINE1-mini (parent)
# chain: GGCAGAGCUCAACACAGCGUGGCAAAGUGGCUGUGGCUAGACUGCC
# Variants of: B1
# Experiment: self-cleavage, relative activity (ratio to wild type); higher = more cleavage; in vitro, sequencing; the parent is a self-cleaving ribozyme
row,Variant,self-cleavage
1,G33A C37A C45U,0.06
2,G19A A25C U32C,0.03
3,G19U G22C A26G C42G,0.01
4,C18U G33U A39G,0.03
5,G22C G29U G33U,0.02
6,C10U G19U G27A U38G,0.03
7,U28G A39G C46G,0.05
8,G2U A41U C42A,0.01
9,A6C C31U G36A C37U,0.05
10,G7A G21U U32A,0.14
11,A11G G33A C46G,0.06
12,G5C A14U C31A G40U,0.02
13,A11C C18G G19C,0.01
14,C8A G22C C23A,0.27
15,C3U C8U U9A,0.69
16,A4C U28A G30U G35U G40A,0.04
17,G21U G30U C37G,0.03
18,C23G A24C U28G G29U C46A,0.85
19,G7C C8U A16C G29A G44A,0.07
20,C3G A11C G17U C31G,0.01
21,G2A A12G A16C G30C,0.11
22,C3U A6G U20A G22A,0.04
23,A6U G17C G19A G21C G22C,0.29
24,C3U U20A U34A A39U,0.07

row,Variant,self-cleavage
1,A4U G5C C15U,0.22
2,A4C A16C G17U G27A G40C G44U C46A,0.08
3,A4U G36C C37U,0.07
4,G7C U34G A39G C42U,0.02
5,U9C A11G G21U U32A C45A,0.01
6,A4U C23A G33C,0.05
7,G5U G35U U38A,0.06
8,G2A A4U A6G C45U,0.32
9,G2C G17U G19U,0.02
10,U9C A25G U38A C46A,0
11,G22U U28A G35U,0.07
12,G1A C23A G36A,0.11
13,G2U A14G G27A U38A,0.03
14,G1A G2C A4U C15A C45A C46G,0.14
15,G5A A26C A39U,0.07
16,G2U G19A A24C U34C G40C,0.01
17,A4U C10U A11G U20G G35U C45G,0.01
18,C8A A16U G22U A39U,0.12
19,A6C C37A G40U C46A,0.07
20,A4U A12C U32G,0
21,G19C A24G G33A G36U,0.08
22,G2A A16G U32C C45G,0.16
23,G2A U9C C13G C18A C42A,0.02
24,G21C G22U C37U,0.02

row,Variant,self-cleavage
1,C8U A11U C31G,0
2,A12G G22A A24G G35A,0.02
3,C8U C10U C15A C37A C46A,0.06
4,C10G C15U G29C G33U C45G C46U,0.01
5,C10G G30C G40U,0.01
6,U32A C37U U43C,0.03
7,C8A U20A U34A,0.13
8,C13A A24C G33U G35U C45G,0
9,C15U C18A G21C A39G,0.07
10,C10U A11G A12G C46A,0
11,G2C G5U G44C C45U,0.04
12,G7U A24C U28A G30A,0.01
13,G1A C8U C15A A26C,0.92
14,C3A C15G A16C A26U U43C,0.09
15,A16G G27U U38C,0.01
16,G7C C10U U32A,0.03
17,G2U G7A A24C G27C G30U C46G,0.15
18,U9A U28A G33C,0.04
19,G2A A12U U34C G35C C45A,0.01
20,A4U G7A A11C A39C C42U,0.03
21,U28C G35C U38A,0.03
22,U9C G27A G33C,0.02
23,C10A C23A G29A C46G,0.01
24,G17C G19A A24C,0.03

row,Variant,self-cleavage
1,G7A A12G C13U A14G,0.1
2,C3A A6U A12C U20A,0.03
3,C8G C15A G21A C23A,0.19
4,C8G C10A C45A C46U,0
5,U9G G29U U34G,0.03
6,C3A C8G G27A G30U U34A C46A,0.07
7,G30U C37G C42A,0.11
8,G2A C10U G36C,0.03
9,G19A G22A A26U G27A G29U,0.26
10,G1C G5C A24U G30A,0.07
11,G17A G30C U34A,0.1
12,G2U A6G G21A G27A,0.25
13,A16U G22A U32C G35A U38A,0
14,C8U A14G C23A G40A A41G,0.01
15,G7C G21C C31A G44C,0.02
16,C3G A16G C42A,0.26
17,C10U G19U C23A A41U,0.05
18,C13G C18U G21A C23U G33U,0.01
19,G1A G33C G40A U43C C46U,0.02
20,C10U G36U A41U,0.03
21,G1A A12G G22U C23G,0.02
22,G1U A12C A25U G27U,0
23,C8U C37G A41U,0.04
24,C3A C13A G19C G22C G30C G40U,0.1

row,Variant,self-cleavage
1,C8G C13A G21C,0.01
2,C13U G19U G40A,0.17
3,G21C C23G A24C U32A,0.01
4,C15U G21C G29A G33A U34A,0.47
5,G1C C10U G27U,0.04
6,G1C C8G G29C C31G A41U U43A C45U,0.01
7,G17U C18U G19A U34G G40C,0.01
8,A14U G17C G22U,0.02
9,G1U C8A A11G A25G G30U,0.01
10,A25U U28C A41U C45U,0.47
11,G5A A6C C18A G19A G21A G36C C37A,0.07
12,C3U A4G A6G U34C,0.12
13,C10U C18A U34C A41C,0.05
14,A25C U32G G40A,0.13
15,G1U A6G C15A A16C,0.01
16,C10U G27A G36C C46G,0.08
17,A14G G35A G36C,0.01
18,C3U A4U G5A C10U A16U G21C A25C G27A,0.04
19,G5U U20G C45G,0.13
20,A6G G19C A24G,0.03
21,U9C A12G A26G C42U,0
22,G2C A6G C8A A11G A12U C15A A24U G36U G44C,0.01
23,G7C G40U C46G,0.02
24,A11G C13U A16U U20A G22C C23U G29C C31A U32C,0

row,Variant,self-cleavage
1,C13U C15A C42G,0.03
2,G5A C15G G44U,0.03
3,C13U C31U U43G G44A,0.09
4,G17U G21C G30A C37U,0.01
5,C37G A39G C46G,0.03
6,A11G C37A U38A,0
7,G17A G29C U43C,0.06
8,G2C A4G G27U,0.01
9,A24U A25G G30C G44U C46A,0.01
10,G2U U9G C10G C13G G19C,0
11,A6C U9A U20G G22A A24U G29U C37A,0.03
12,A6U A12C G33A,0.02
13,G17C G27C G36C C46G,0.05
14,C3A A4U C8G U28G,0.26
15,G7U C10A U20G G21U,0.03
16,G5C U32G G40A,0.02
17,A11G C15U G44U,0.02
18,C8G C13G G36A U43C,0
19,A6U G17C C18U G21C,0.08
20,A4C A25G U28G U38G,0.01
21,G5C A11U G22A A24U G33A C46A,0.02
22,G21U G36A C45G,0.05
23,G1C A12C G19A,0.03
24,G7U U9G G35A,0.03

row,Variant,self-cleavage
1,A12G G22A A26C A39U,0.01
2,A11U C18A C37A,0.01
3,A14G G19U G40U C46A,0.04
4,G5U U9G C15A C18A G19C G44A,0.14
5,U28C G33A A41G,0.05
6,G7A G22C G33C C37G,0.06
7,A4U C8U G17U,0.05
8,C3U C13G G40U,0.04
9,A6U U28G U34C C46G,0.03
10,A4C C23U U32G,0.23
11,U20A G36A G44A,0.05
12,A11C A14G G17U,0.03
13,G2C C13U G17U U34A,0.11
14,C18U A24G C31A G40U,0.06
15,A4G G17U G29U C46A,0.27
16,C3A A4U U9A G33U A39U,0.21
17,A4G G5A C10A A14U C18G,0.02
18,C10G U20A A25G G29C,0.03
19,C31U G36U A41U,0.02
20,G7A C10U C13U G19U,0.13
21,G2C A12G C23U C37A U43A,0.1
22,A12U G27A C42A,0.04
23,C13G U28C G29A C46G,0.11
